From the supplement of paper PMC4604168 (melanoma cell lines)
The other results are listed elsewhere or left out. Most values come without repeats; read them as rough.

System: WM115
Experiment: cell count relative to DMSO control; melanoma cells; higher = more viable cells
Details: library dose: standard library concentration; 72 h
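Note: cells treated in 1,536-well plates, then fixed and DAPI-stained, with nuclei counted from automated high-throughput microscope images.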

SMILES	cell count
OCc1c[nH]c2ccccc12 [Indole-3-carbinol] + Oc1nc(-c2ccc(C(F)(F)F)cc2)nc2c1CSCC2 [XAV939] (first compound 4 µM, partner dose 10 µM)	83.8%
Clc1ccc(Nc2nnc(Cc3ccncc3)c3ccccc23)cc1 [vatalanib] + N#Cc1c(O)c2c(-c3ccc(-c4ccccc4O)cc3)csc2[nH]c1=O [A769662] (first compound 10 µM, partner dose 10 µM)	84.2%
Clc1ccc(Nc2nnc(Cc3ccncc3)c3ccccc23)cc1 [vatalanib] + O=C(O)C(=O)Nc1sc2c(c1C(=O)O)CCNC2 [TCS401] (first compound 10 µM, partner dose 8.33333 µM)	87.2%
Clc1ccc(Nc2nnc(Cc3ccncc3)c3ccccc23)cc1 [vatalanib] + COc1ccc(-c2ccc3c(N4CCOCC4)nc(N4C[C@@H](C)O[C@@H](C)C4)nc3n2)cc1CO [KU0063794] (first compound 10 µM, partner dose 0.1 µM)	85.7%
Clc1ccc(Nc2nnc(Cc3ccncc3)c3ccccc23)cc1 [vatalanib] + CC(C)CCN1c2nc(Nc3cc(F)c(O)c(F)c3)ncc2N(C)C(=O)C1C [BID1870] (first compound 10 µM, partner dose 1 µM)	89.9%
OCc1c[nH]c2ccccc12 [Indole-3-carbinol] + O=C(Nc1ccccc1)c1cc([N+](=O)[O-])ccc1Cl [GW9662] (first compound 4 µM, partner dose 10 µM)	78.4%
Clc1ccc(Nc2nnc(Cc3ccncc3)c3ccccc23)cc1 [vatalanib] + Oc1nc(-c2ccc(C(F)(F)F)cc2)nc2c1CSCC2 [XAV939] (first compound 10 µM, partner dose 10 µM)	92.1%
Clc1ccc(Nc2nnc(Cc3ccncc3)c3ccccc23)cc1 [vatalanib] + O=C1NC(=O)/C(=C/c2ccc(-c3ccc(F)cc3O)o2)S1 [AS252424] (first compound 10 µM, partner dose 5 µM)	93.6%
Nc1cccc2c1CN(C1CCC(=O)NC1=O)C2=O (configuration not stated) [lenalidomide] + COc1cc2c(Oc3ccc4[nH]c(C)cc4c3F)ncnc2cc1OCCCN1CCCC1 [cediranib] (first compound 5 µM, partner dose 2 µM)	94.6%
Clc1ccc(Nc2nnc(Cc3ccncc3)c3ccccc23)cc1 [vatalanib] + COc1ccc(COc2ccc(Cc3cnc(N)nc3N)cc2OC)cc1 [GW2580] (first compound 10 µM, partner dose 5 µM)	93.4%
COCC[n+]1c2c(n(Cc3cnccn3)c1C)C(=O)c1ccccc1C2=O + CN(C)S(=O)(=O)c1ccc2c(c1)/C(=C/c1cc3c([nH]1)CCCC3)C(=O)N2 [SU6656] (first compound 0.002 µM, partner dose 2 µM)	37.7%
Clc1ccc(Nc2nnc(Cc3ccncc3)c3ccccc23)cc1 [vatalanib] + Cn1cc(/C=C2\C(=O)Nc3cccnc32)c2ccccc21 [GW441756] (first compound 10 µM, partner dose 2 µM)	90.4%
